# Experimental data reported in ChEMBL document CHEMBL1157539, “Thousands of chemical starting points for antimalarial lead identification” (Nature, 2010).
# In all, about 13,000 compounds were measured (“IFI”: median about 4, highest 2% from about 17 on). This is one part of the list.
# Assay: GSK_TCMDC: Inhibition Frequency Index (IFI). The number of non-kinase HTS assays where a compound showed > 50 % inhibition, expressed as a percentage of the number of such assays in which the compound was tested (-0 is zero)
# Format: functional
row,Structure (SMILES),IFI [%]
1,Clc1ccccc1CNc1noc(-c2sccc2Br)n1,9.09
2,COc1ccc2nccc([C@@H](O)CN3CCC(NCc4nc5cc(F)ccc5o4)CC3)c2c1,2.24
3,CCN(CC)CCOc1cc2c(cc1Br)-c1cc(Br)c(OCCN(CC)CC)cc1C2=NO,9.84
4,CC1(C)NC(N)=NC(=N)N1OCOc1cc(Cl)c(Cl)cc1Cl,5.67
5,O=C(Nc1cccc(OC2CCN(Cc3ccccc3)CC2)c1)c1ccc([N+](=O)[O-])cc1,3.68
6,CCN(CC)CCN(Cc1ccc(-c2ccc(Cl)cc2)cc1)C(=O)Cn1c(CCc2cccc(F)c2F)nc(=O)c2ccccc21,8.33
7,O=C(/C=C/c1ccc(Cl)c(Cl)c1)NCCCCCN1CCC(NC(=O)Nc2ccc(Br)cc2)CC1,8.61
8,O=C(N[C@@H](Cc1ccccc1)C(=O)NCCN1CCOCC1)c1ccc(O)c(-c2ccc(Cl)c(Cl)c2)c1,0.74
9,CCN(CC)CCNC(=O)c1ccc(Nc2ncc([N+](=O)[O-])c(Nc3ccccc3OC)n2)cc1,10.9
10,CCOc1ccccc1C(=O)Nc1cccc(-c2nc3ncccn3c2C)c1,1.71
11,CN(CCCCN)Cc1ccc(-c2ccc(Cl)cc2)cc1,4.44
12,CC1(C)CC(NCCCCCCCOc2ccc(OCc3ccccc3)cc2)CC(C)(C)N1,16.8
13,O=C(Nc1ccc(Cl)cc1)N[C@H]1CCN(CCCCCNC(=O)C2CC2c2ccc(Cl)c(Cl)c2)C1 (stereo partly specified),11.5
14,CCn1c(Cc2ccccc2)nnc1SCC(=O)N1c2ccccc2Sc2ccccc21,6.19
15,CCNc1cc(C(=O)N[C@@H](Cc2ccccc2)[C@H](O)CNC2CCC(F)(F)CC2)c(F)c(N2CCCCS2(=O)=O)c1,2.96
16,CN1CCN(CCCN(Cc2ccc(-c3cccc(CNCc4ccc5c(c4)OCO5)c3)cc2)C(=O)NCCc2ccccc2)CC1,7.69
17,CC(=O)Nc1ccc(C(=O)Nc2cccc(-c3ccc(-c4nc5cc(C(F)(F)F)ccc5[nH]4)cc3)c2)cn1,3.7
18,COc1c(CNCCCCCCNCc2c(OC)c(OC)c3ccccc3c2OC)c(OC)c2ccccc2c1OC,21.3
19,CN(C)c1ccc(-c2cscc2C(=O)NC2CCCN(Cc3cccnc3)C2)cc1 (stereo unspecified),0
20,O=C1CCCN1CCCNCc1ccc(-c2ccc(-c3nc4cc(F)ccc4[nH]3)s2)cc1,3.88
21,Cc1c(CCc2cccc(F)c2F)[nH]c2ccccc2c1=O,3.01
22,CC1(C)CN(CCC2CCC(NC(=O)/C=C/c3ccc(F)cc3F)CC2)Cc2ccc(C#N)cc21 (stereo unspecified),0.76
23,CC1c2cccc(O)c2CCN1CCc1ccc(Cl)c(Cl)c1 (stereo unspecified),6.47

row,Structure (SMILES),IFI [%]
1,Nc1nc(N)c2cc(S(=O)(=O)c3ccc4ccccc4c3)ccc2n1,3.65
2,COc1ccccc1CNc1ccnc(NCCc2cccc(C(F)(F)F)c2)n1,16
3,CCC1(C)N=C(N)N=C(N)N1c1ccccc1 (stereo unspecified),-0
4,COc1cccc(Cn2ccc3c4c(N)nc(N)nc4ccc32)c1,5.74
5,CCc1ccc(Cc2cnc3nc(N)nc(N)c3c2C)cc1,3.25
6,Nc1ncc(Cc2cc(Cl)c(N)c3ncccc23)c(N)n1,2.9
7,COc1ccc(NC(=O)[C@H](CC(C)C)Nc2cc(C)nc(Nc3ccccc3)n2)cc1,4.76
8,CCN1CCN(C(=O)NC(C(=O)N(C)Cc2ccc(-c3ccc(C(F)(F)F)cc3)cc2)c2cccs2)C(=O)C1=O (stereo unspecified),2.7
9,CC(C)(C)c1ccc(Cn2c(=N)n(CC(=O)c3ccc(-c4ccccc4)cc3)c3ccccc32)cc1,11.8
10,CCCOc1ccc(OCCCON2C(=N)N=C(N)NC2(C)C)cc1,6.47
11,Fc1ccc2[nH]c(-c3cccc(-c4ccc(CNCCc5ccncc5)cc4)c3)nc2c1,9.71
12,Cc1cccc2nc(-c3ccc(-c4ccc(C(=O)NCCN5CCCC5)cc4)s3)[nH]c12,4.55
13,CC1(C(=O)Nc2ccc([N+](=O)[O-])cc2O)CC2c3ccccc3C1c1ccccc12 (stereo unspecified),17.4
14,CC(C)(C)C1=CC(=NNC(=O)c2ccncc2)C=C(C(C)(C)C)C1=O,11.8
15,NC(=O)C1CCN(Cc2ccc(-c3cccc(-c4nc5cc(F)ccc5[nH]4)c3)cc2)CC1,0
16,CCN(CC)/C(=N\CCCCCC/N=C(\NC(=N)c1ccc(Cl)cc1)N(CC)CC)NC(=N)c1ccc(Cl)cc1,12.2
17,O=C(NCC1CCN(CC2CCCCC2)C1)c1cc(-c2cccc(C(F)(F)F)c2)cs1 (stereo unspecified),10
18,Cc1cc(N)c2cc(NC(=O)c3cc(C(F)(F)F)cc(C(F)(F)F)c3)ccc2n1,9.46
19,Oc1ccc2c(CNC3CCCCC3)c(O)ccc2c1CNC1CCCCC1,9.52
20,CN(C)c1cc(NN=Cc2cc(Cl)ccc2O)nc(N(C)C)n1,2.96
21,N#Cc1ccc(N(CCOC(=O)c2ccc(Br)s2)Cc2ccccc2C(F)(F)F)cc1C(F)(F)F,0.7
22,NC1=NC(c2ccccc2)(c2ccccc2)C(=O)N1Cc1ccccc1Br,4.65
23,O=C(/C=C/c1ccc(Cl)c(Cl)c1)NCCCCCN1CCN(C(=O)Nc2ccc(C(F)(F)F)cc2)CC1,5.96

row,Structure (SMILES),IFI [%]
1,Cc1cccc(Cn2c(Cc3ccccc3)nnc2Sc2ccc([N+](=O)[O-])c(C#N)c2)c1,4.14
2,O=C(Nc1ccc(Cl)cc1)c1ccc(CN2CCCN(Cc3ccccc3)CC2)cc1,11
3,O=C(Nc1ccc2c(c1)CCN2C1CCN(Cc2cccc3cc[nH]c23)C1)c1ccco1 (stereo unspecified),-0
4,Cc1csc(-c2nc(NCc3cccnc3)ncc2-c2ccsc2)n1,4.44
5,O=C(Nc1ccc(-c2nc3ccccc3[nH]2)cc1)C1CCN(Cc2ccc(F)cc2)CC1,2.38
6,COc1ccc(Br)cc1/C=C/C(=O)Nc1ccc2c(c1)CCCN(C)C2,3.39
7,CC(C)N1CCC(N(Cc2ccc(-c3ccc(Cl)cc3)cc2)C(=O)Cn2c(CCc3cccc(F)c3F)cc(=O)c3ccccc32)CC1,6.99
8,CCCCCN1CCCC(NS(=O)(=O)c2ccc(C(=O)Nc3cccc(C(F)(F)F)c3)cc2)C1 (stereo unspecified),4.12
9,CC1CCCC(NC(=O)CCOc2ccccc2)C1 (stereo unspecified),0.75
10,CN1CCN(Cc2ccc(-c3cc4nccc(Nc5ccc(Oc6ccccc6)cc5)c4cc3Cl)o2)CC1,2.27
11,Cn1cncc1C(=O)Nc1cccc(-c2ccc(-c3nc4cc(C(F)(F)F)ccc4[nH]3)cc2)c1,4.42
12,c1cc(CN2CCc3ccccc3CC2)cc(-c2c[nH]c3nc(NC4CCCC4)ncc23)c1,-0
13,Cc1cc(C(=O)Nc2ccc3c(c2)CCN3C2CCN(Cc3csc4ccccc34)C2)no1 (stereo unspecified),-0
14,CCc1cc2c(Sc3nc4ccccc4[nH]3)ncnc2s1,3.33
15,Cc1onc(-c2c(Cl)cccc2Cl)c1C(=O)NC1=NC(C)(C)ON1c1ccccc1,2.63
16,COCCNCc1cccc(-c2cc3nccc(Nc4ccc(Oc5ccccc5)cc4)c3cc2Cl)c1,6.87
17,Cc1cnccc1/C=C/c1cccc(OCCCN2CCc3ccc(S(C)(=O)=O)cc3CC2)c1,0
18,CC(C)C[C@H]1c2[nH]c3ccc(Cl)cc3c2CCN1C(=O)CCc1ccccc1,4.46
19,O=C(Nc1ccc(OC2CCN(Cc3ccc(F)cc3)CC2)c(Cl)c1)c1cccs1,9.52
20,NCc1ccc(CNCc2ccc(-c3ccc(-c4nc5cc(F)ccc5[nH]4)cc3)cc2)cc1,10.7
21,CC1CCCN(S(=O)(=O)c2ccc(NC(=O)c3cc(-c4ccccc4O)n[nH]3)cc2)C1 (stereo unspecified),12.7
22,O=C(Cn1c(SCc2cccc(F)c2F)cc(=O)c2ccccc21)N(CCn1ccnc1)Cc1ccc(-c2ccc(C(F)(F)F)cc2)cc1,4.35
23,CCCNCc1ccc(-c2ccc(CN(Cc3cccs3)C(=O)C3CCN(C)CC3)cc2)nc1,3.42

row,Structure (SMILES),IFI [%]
1,COC(=O)c1cccc(CNCc2ccc(-c3ccc(-c4nc5ccccc5[nH]4)s3)cc2)c1,7.69
2,N=c1sc2ccccc2n1CC(O)c1ccc(Cl)c(Cl)c1 (stereo unspecified),-0
3,COc1ccc(C)c(Nc2ccnc(Nc3cccc(-c4nc5ccccc5[nH]4)c3)n2)c1,14.8
4,Cc1ccc(Sc2ccc(NC(=O)CN3CCN(C(=O)c4ccco4)CC3)cc2)cc1C,5.66
5,CC1CCN(CCNC(=O)c2ccc3c(=O)n(Cc4ccc(Cl)cc4)c(=S)[nH]c3c2)CC1,8.09
6,Cc1cc(C(=O)NC2CCN(CC3(c4ccccc4)CCCCC3)CC2)on1,6.38
7,COc1cc(Nc2ccnc3ccc(C(F)(F)F)cc23)ccc1OCCCc1ccccc1,5.15
8,O=C(Nc1ccc(OC2CCN(Cc3ccsc3)C2)c(Cl)c1)c1ccco1 (stereo unspecified),0
9,c1cncc(CN2CCN(Cc3ccc(-c4ccc(-c5nc6ccccc6[nH]5)s4)cc3)CC2)c1,4.96
10,O=S(=O)(NCCN1CCCC1)c1ccc(-c2ccc(CNCc3ccc(F)cc3)cc2)cc1,11.8
11,COc1ccc(Nc2nccc(N3CCC(NC(=O)C(C)c4ccc(Cl)cc4)C3)n2)cc1 (stereo unspecified),10.4
12,O=C(Nc1ccc(CC(=O)N2CCc3cc(Cl)c(N4CCN(C/C=C/c5ccccc5)CC4)cc32)cc1)Nc1cccc([N+](=O)[O-])c1,-0
13,CCN(CC)C(=O)c1cnc(-c2ccccc2)nc1Oc1cccc(Cl)c1,2.33
14,CCc1ccc(NC(=O)c2ccc(CN3CCCN(Cc4ccc(C)s4)CC3)cc2)cc1,8.59
15,CC1(C)N=C(N)N=C(N)N1OCC1COc2ccccc2O1 (stereo unspecified),1.46
16,O=C(Nc1cccc(-c2cccc(-c3nc4ccccc4[nH]3)c2)c1)Nc1ccc2c(c1)OCO2,4.95
17,Clc1ccc(CNc2ccnc(NCCc3coc4ccccc34)n2)c(Cl)c1,8
18,CCCn1c(Sc2ccc(C#N)c([N+](=O)[O-])c2)nnc1-c1ccc(N(C)C)cc1,3.57
19,CCCN(Cc1nnc(-c2ccco2)o1)C(=O)C1CCN(c2ncc(C(F)(F)F)cc2Cl)CC1,4.49
20,O=C(Cc1cccc2ccccc12)NC1CCN(c2ccnc3cc(Cl)ccc23)C1 (stereo unspecified),1.54
21,O=C(NCc1cccc(Br)c1)c1ccc(CNC2CCN(Cc3ccccc3)CC2)cc1,2.96
22,COc1cccc(C2CCN(CCN3CCC(NC(=O)c4ccc(-c5ccc(C#N)cc5)cc4)CC3)CC2)c1,3.64
